# Data: PubChem BioAssay AID686970 (National Center for Advancing Translational Sciences (NCATS), 2013)
# About 6,000 (1.7%) of roughly 360,000 compounds were called active. The inconclusive results got no clear call from the source; some entries with a clear call stand among them for comparison. Calls come from the whole dose curve; as a rule, active = well fitted cell-killing curve with a large enough effect; inconclusive = small, poorly fitted or top-dose-only effect, or effect the other way; inactive = flat fitted curve, though single readings scatter. No potency is given beside an inconclusive call; the fits are too rough.
# Experiment: qHTS for induction of synthetic lethality in tumor cells producing 2HG: qHTS for the HT-1080-NT fibrosarcoma cell line;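 note: NT is the 2HG producing partner of a matched IDH1 knockdown line; nearly all actives have a fitted effect of over 55% in size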;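 for activity, negative = less viability: 0% = DMSO-treated cells and -100% = media-only wells without cells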
# Conditions: HT-1080-NT fibrosarcoma viability, CellTiter-Glo ATP luminescence, 48 h; activity, negative = less viability: at 46.1 µM (top of the series) unless noted
# How it was run: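 HT-1080-NT fibrosarcoma cells (2HG-overproducing), 750 cells/well in RPMI with 5% FBS, dosed after 2 h and incubated 48 h at 37C. CellTiter-Glo luminescence normalized to DMSO and no-cell wells; concentration-response curves fitted and classed.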
# Potency is the fitted concentration of half-maximal effect; tags give direction and shape of the fitted curve.
Compound,Potency,"activity, negative = less viability"
Cc1csc(NC(=O)Cn2cnnn2)n1,"inconclusive [rising, full curve, poor fit]",
C/C(=N\NC(=O)Cc1c[nH]c2ccccc12)c1ccc2ccccc2c1,"inconclusive [cytotoxic, single point]",
CCOc1ccc(-c2cnc(NCc3cccc4ccccc34)n2CCOC)cc1,"inconclusive [cytotoxic, single point]",
OCCC1CN(CCCc2ccccc2)CCN1Cc1ccc(F)cc1 (stereo not given),inactive,
COc1ccc(OC)c(NC(=O)C2(C)CCN2Cc2cccc(OC)c2F)c1 (stereo not given),"inconclusive [cytotoxic, single point]",
O=C(NC(=S)Nc1ccc(CN2CCOCC2)cc1)c1ccco1,inactive,
O=C([C@H]1O[C@@H](n2ccc(=O)[nH]c2=O)[C@H](O)[C@@H]1O)N1CCC(F)(F)CC1,"inconclusive [rising, single point]",
CC(=O)O[C@]1(C(C)=O)CC[C@H]2[C@@H]3C=C(C)C4=CC(=O)CC[C@]4(C)[C@H]3CC[C@@]21C,,inconclusive: 30.4%
O=C(C[C@@H]1C[C@@H]2c3cc(NS(=O)(=O)c4ccc(F)cc4)ccc3O[C@@H]2[C@H](CO)O1)NCc1ccc(Oc2ccccc2)cc1,"inconclusive [cytotoxic, single point]",
O=[N+]([O-])c1ccc(/C=N/Nc2nc(N3CCCC3)nc(N3CCCC3)n2)o1,"inconclusive [cytotoxic, partial curve]",
O=S1(=O)c2ccc(Br)cc2N2CC[C@H](C2)N1Cc1ccc(Cl)cc1,"inconclusive [cytotoxic, single point]",
Cc1cc(Cl)c2c(c1)[C@]1(C(=O)N2)[C@@H]2C(=O)N(Cc3ccccc3)C(=O)[C@@H]2[C@@H]2CCCN21,"inconclusive [cytotoxic, single point]",
COC(=O)[C@@]1(Sc2ccc(C)cc2)CC(=O)N(C(=O)/C=C/c2ccccc2)[C@@H]1c1ccccc1,"inconclusive [cytotoxic, single point]",
CCOC(=O)c1cccc(NC(=O)CSc2nncn2-c2ccccn2)c1,inactive,
Cn1cc(/C=N/NC(=O)c2cc3cc(Br)ccc3o2)c2ccccc21,"inconclusive [cytotoxic, single point]",
Cc1cc2cc(CNC(=O)c3ccc(Br)o3)ccc2[nH]1,inactive,
CCc1cc(Cn2nc(-c3ccccc3)cc2C(=O)NCc2cccs2)on1,"inconclusive [cytotoxic, single point]",
O=C(COC(=O)c1ccc(Br)o1)Nc1ccc(Br)cc1,inactive,
O=c1c2ccc(Cl)cc2nc(-c2cccc(C(F)(F)F)c2)n1O,"inconclusive [cytotoxic, partial curve]",
COc1ccc2c(CC(=O)NNC(=O)c3ccc(O)cc3)coc2c1,inactive,
COc1ccc(-[n+]2c(C)cc(/C=C3\Sc4ccccc4N3C)cc2C)cc1,active: 4.11 µM,
CCOc1c(OC)cccc1C1CC(=O)Nc2cc3c(cc21)OCCO3 (stereo not given),"inconclusive [cytotoxic, single point]",
CCOC(=O)C1=CN(Cc2ccco2)S(=O)(=O)N(C)C1c1ccccc1 (stereo not given),"inconclusive [cytotoxic, single point]",

Compound,Potency,"activity, negative = less viability"
Cc1ccc(S(=O)(=O)CCSc2n[nH]c(=O)n2-c2ccccc2)cc1,"inconclusive [cytotoxic, partial curve, poor fit]",
COC(=O)c1c(-c2ccccc2)nn(-c2ccccc2)c1C(=O)OC,inactive,
CC(=O)Nc1ccc(S(=O)(=O)N(C)CC(=O)Nc2nc3ccccc3[nH]2)cc1,inactive,
CC(C)Nc1ncnc2c1ncn2[C@H]1CN(CCN2CCOCC2)C[C@@H](CO)O1,"inconclusive [rising, single point]",
CCc1cc(C(=O)NNC(=S)NC(C)c2ccccc2)cs1 (stereo not given),"inconclusive [cytotoxic, single point]",
COc1cc2c(cc1NC(=O)Nc1ccccc1)oc1ccccc12,"inconclusive [cytotoxic, single point]",
Cc1nc(-[n+]2nc(-c3ccncc3)nn2-c2ccccc2)sc1C,active: 25.9 µM,
S=C(NCc1ccco1)Nc1cc(Cl)c(Cl)cc1Cl,"inconclusive [cytotoxic, single point]",
Cc1cc(=O)oc2cc(OCCc3ccccc3)ccc12,"inconclusive [cytotoxic, full curve, poor fit]",
Cc1ccc(C(C)C)c(Oc2nnnn2-c2ccccc2)c1,"inconclusive [cytotoxic, single point]",
NC(Cc1ccc(C(F)(F)F)cc1)c1csc(Nc2cc(Oc3ccccc3)ncn2)n1 (stereo not given),"inconclusive [cytotoxic, single point]",
COc1ccc(NS(=O)(=O)c2ccc(NC(=O)c3ccc(N(C)S(C)(=O)=O)cc3)cc2)cc1,active: 18.4 µM,
Cc1[nH]c(C)c(S(=O)(=O)Nc2cccc(Cl)c2C)c1C(=O)N1CCCCC1,inactive,
CC(=O)c1c(C)[nH]c(C(=O)CSc2ccc(F)cc2)c1C,"inconclusive [cytotoxic, single point]",
COc1ccc(C)cc1S(=O)(=O)Nc1cccc(C)c1,"inconclusive [rising, single point]",
O=C(O)c1ccccc1Cc1ccc2c(c1)CCCC2,inactive,
O=C(NNC(=S)Nc1ccccc1)c1cc(-c2cccnc2)nc2ccccc12,inactive,
COc1ccc(OC)c(NC(=O)c2cccc3c2C(=O)N(C2CCCCC2)C3)c1,inactive,
COc1ccc2oc(C(=O)NCCN3CCOCC3)c(C)c2c1OC,inactive,
CCOC(=O)N1CCN(C(=O)COC(=O)c2cc(Cl)cc(Cl)c2)CC1,,inconclusive: 7.58%
CCOC(=O)[C@]12Cc3c(cc(OC)c(OC)c3OC)[C@H]1N(C1CCCCC1)C(=O)c1cc(OC)ccc12,active: 11.6 µM,
CSc1ccc(C(O)c2ncc(-c3cccc(OCc4ccccc4)c3)[nH]2)cc1 (stereo not given),"inconclusive [cytotoxic, single point]",
